Sequences with one replicate were seen in a single cluster, so their values are uncertain.
System: ATP
Assay: switch fluorescence ratio, 500 uM ATP over buffer (Cy3 cluster intensity, sum of 5 cycles each) (fold (ratio)); higher = stronger signal-on switching upon ATP binding; sequences stand for … in TCGTCGGCAGCGTCAGATGTGTATAAGAGACAGTTTTTTTTTTTTTTTTTTTTTTTTT…TC
Settings: aptamer strand: ATP DNA aptamer (quencher-CACCTGGGGGAGTATTGCGGAGGAAGG + anchor), 100 nM annealed; ATP concentration: 500 uM; one replicate
Summary of the method: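 After annealing to 100 nM quencher-labelled ATP aptamer, Cy3-labelled switching-strand clusters on a modified Illumina MiSeq flow-cell were imaged in selection buffer. A second image followed after 15 min with 500 uM ATP at 22 °C, and five such buffer/ATP cycles were done, each separated by NaOH stripping and re-annealing. The fluorescence ratio, averaged per switch-domain sequence, is summed target-cycle over summed buffer-cycle Cy3 intensity per cluster, with clusters outside 100-1000 RFU excluded.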
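Also: ATP exposure 15 min at 22 °C before imaging.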

Sequence | switch fluorescence ratio
TAATCAATGC | 1.56
ATTAAGTTAG | 1.02
CTTGCTGCAA | 2.5
TGACTCAGGT | 1.07
TGACCCATCG | 0.998
GCAATGACCG | 1.19
TACCCTCGCA | 1.67
TGCTGAACG | 1.02
TTGTTCCCCT | 1.04
ATGGTGCGAG | 0.988
TCGGGTCGTT | 1.02
CACGGCATGT | 1.09
AATTCTAACA | 1.01
CCATCTGTG | 1.02
CCCGGTAGCT | 1.13
TATCTCACCA | 1.06
GTCGGCCAAG | 0.974
GAGACCATCG | 1.07
GCGAGGGTCA | 1.04
TTGACATCAG | 1.05
TTTATCCGAT | 0.983
CGGTGGCTTA | 1.02
GTTGTGGCAG | 0.95
GGCTCACACG | 1.11
GACCGTTATA | 1.08
ACGTACTCGG | 1.7

Sequence | switch fluorescence ratio
ATTACCCGTG | 0.99
GTACCATAAC | 1.33
GTTTGCGGA | 0.95
GGATACCGT | 0.944
GCCGCGTCTA | 1.03
ATTTACACGT | 1.03
TGCCACGGAG | 0.991
CTTGAAGGG | 0.978
GGGACAATTT | 0.998
TTAGCCGCCC | 1.46
TCTGTAGGA | 1.02
CAAATGCAAG | 1.01
ATGAATACG | 1.03
CACATGAATG | 0.954
GGCGCGAACC | 1.2
TTGACGTGGT | 1
CTCTATAGCA | 1.1
TAATATCACG | 0.989
TCGGCGCAT | 1.73
TGCCTGCTCC | 1.08
CGACCGTGTT | 0.977
GGCTGGAACG | 1.05
GGCAGTATAT | 0.964
GTTGTCTGGG | 0.99
GGCAACCCTA | 1.06
CATGGCCGGA | 0.977

Sequence | switch fluorescence ratio
GGCAGCAGGT | 1.02
TGAAGCGATG | 1.47
TGGGTGGACG | 1.01
ATTCCCTGTG | 1.11
GCAGTTTCGT | 0.966
CACTATATGC | 1.04
GTAGGAGCTG | 0.997
TCGAAAGGAG | 0.995
CGAAGTGAGT | 1.05
TGAGGTCGGA | 0.989
GCTAAAGATT | 0.961
CGCGAAGAGG | 0.978
ATTTCACGGG | 1.06
AGAGGAGGAG | 1.01
CCAAGATGGA | 0.987
ACAGAACACT | 1.11
GGGAGCATAG | 1.09
GTGACTTGG | 0.99
TACCGAACAG | 1.2
AAGTAACTTG | 0.997
CTCTTCTGG | 1.01
TTTTATGCCA | 1.02
GCGAAGAC | 1.53
TGTCGTCAAA | 0.992
AAGATGAAGT | 0.994
GGCCTGCAAG | 1.02

Sequence | switch fluorescence ratio
AGGCCGGTAC | 1.11
TAGAGACTAT | 0.969
TTCAGGGTTG | 0.986
GATTCGGGAT | 1.12
TACCACCTTA | 1.1
AATCTGTGG | 0.994
TTACCCCCGC | 1.4
TGCTGTGGCA | 1.01
GAGACCTCG | 1.05
GTATCTCACA | 1.02
TAGGGCTCCA | 1.02
AGTACGTGG | 1
TTCTCTTTCA | 1.02
GCGGCGCGGG | 1
TTAGGCTTTG | 1
CTACCTTTTT | 0.983
CCCCCCCAC | 4.08
AAGAGAGAGG | 0.947
CTGCGAACGG | 1.08
TGCATCTTG | 1.03
AACCTGTCAA | 1.2
AATTTAGCAC | 1.05
CTTTAGCACG | 1.01
TTCTCTGTG | 0.998
ACGGACTGGG | 0.989
TCGTATAGGA | 1.01

Sequence | switch fluorescence ratio
ACGTATAGCG | 0.969
AGTTCATACA | 1.03
GTGGAGCGTG | 1.03
ATTTGGGAA | 0.981
CTGCGCCTGC | 1.47
TTTACTAAAT | 1
CTTAGAAACT | 1.01
CGCGTGCGAA | 1.04
TGATCAACTC | 1.04
GAGTGACAGG | 1.04
CCTCGACGCG | 1.2
TATATACCCT | 1.07
GCGATTATGC | 0.972
ACATGCGCAT | 0.975
AGCTGGTGCC | 1.07
CTAATTGAAT | 1.01
ATTCCGTTAA | 1.09
GGCCCTGATG | 1.03
TTCGCAAATT | 2.11
TGTAGGGTGG | 1.02
AGCCTGAACG | 1.03
GCACTTATAC | 2.12
CTAGCAACAA | 1.32
GATATGGAGC | 0.976
TCCTCGGGAA | 2.35
GGGGAAATAG | 1.01

Sequence | switch fluorescence ratio
TTCGCAGACT | 3.25
TCCATGATG | 1
AAAGTCCAAG | 0.976
GGTTTACCT | 0.992
GAAACTACGC | 1.28
TGTCGTGCG | 1.02
TTCCTGAGCT | 1.25
GCAGTCCCTT | 0.97
TTGGGGAGCA | 0.976
GGGTGTTCAG | 0.965
TTAGGTGTA | 0.972
GATCCTATAG | 1
GTGGATGAGT | 0.997
TAAGGACCAC | 1.1
GAGAATTACC | 1.05
ATGCAAACTT | 1.06
ACAAAATTTA | 1.01
CTGTCTAACT | 0.992
AGCTGGTGC | 1.05
AGATGAAAGT | 0.977
TCTGTTATAA | 1.08
CTCTTAATTG | 1.03
CGGTGAGTAA | 0.977
GGCTCCGTTT | 1.18
TTGGTAGAAG | 1.06
TTTGGTTTAA | 0.957

Sequence | switch fluorescence ratio
GACTCACATA | 1.33
TAAGTGACGA | 1
GGTGTCATCT | 0.996
GCTGATATAT | 1
GCTTCGATTT | 1
TATCCTGCGC | 1.81
AGTTAAGGGC | 1
GATGCCAGAA | 1.01
AGACGCAGG | 1.03
CAGGTTGAAT | 1.01
TAAAAATTCG | 1.01
GCGTGTATAC | 1.1
TTCCAGCCGA | 1.02
ACTTGGATA | 1.01
GGTCCTCCAA | 0.99
AGCGAAAATT | 1.01
GTTGTCCTT | 1
GCTATGAGGA | 1.02
ACTTGCAGAG | 0.997
TAACCGTCCT | 1.37
TGGCAAACAC | 1.17
TGGCATGTTT | 1.01
CGCTCTGACT | 1.03
TCGATGGCCC | 1.03
GATAAAGACT | 0.993
ATGCCCTCGG | 0.968

Sequence | switch fluorescence ratio
TAGGACATTG | 1.09
TATACGGGCT | 1.01
ATTTTGTCTG | 1.02
CAGGACTAAG | 1.04
AAGAATCCGA | 1.01
CGTGCCCTGT | 1.03
TTTTATAAT | 0.952
GGAACCTTAT | 1.11
TTATATATGA | 1.02
TCCAGCTCGT | 1.02
GTCATTAAGC | 1.03
GTACCACGGC | 1.02
ATCGTACAGG | 1.08
GATGAGTCCG | 1.17
CGTAAGGGCC | 1.04
ATAGGGGCGT | 0.985
AGCATATCTA | 1
CAGTAACTTG | 1.02
GTCGTGTCGC | 1.1

— the supplement of paper PMC10126150
